Test results taken from the supplement of paper PMC3334620.
In all, about 33,000 sequences were measured (“E-score (-0.5 to 0.5)”: median about -0.036, highest 2% from about 0.37 on). Some of the results follow.

These sequences were tested against T1, Yer064c (UniProt P40041) (assay: PBM E-score (8-mer binding enrichment) (E-score (-0.5 to 0.5)); higher = stronger / more preferred TF binding; most listed sequences are background and not binding sites). Conditions: protein concentration: 200 nM; construct: GST-full length.
T1 sequence: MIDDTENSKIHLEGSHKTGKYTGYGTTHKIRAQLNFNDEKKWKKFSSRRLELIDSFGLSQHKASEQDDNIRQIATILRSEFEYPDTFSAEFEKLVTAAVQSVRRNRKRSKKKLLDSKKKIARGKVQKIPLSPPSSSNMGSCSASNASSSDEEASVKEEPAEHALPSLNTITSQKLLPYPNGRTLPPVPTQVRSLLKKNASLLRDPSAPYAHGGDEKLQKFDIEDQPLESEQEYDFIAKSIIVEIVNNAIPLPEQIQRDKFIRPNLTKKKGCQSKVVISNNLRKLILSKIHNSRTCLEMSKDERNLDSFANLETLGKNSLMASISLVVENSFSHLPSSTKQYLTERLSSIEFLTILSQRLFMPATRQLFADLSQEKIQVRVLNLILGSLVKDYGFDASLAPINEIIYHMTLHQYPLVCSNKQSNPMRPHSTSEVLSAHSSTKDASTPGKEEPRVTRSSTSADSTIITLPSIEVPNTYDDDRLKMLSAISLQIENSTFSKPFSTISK
Summary of the method: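 GST-tagged yeast TFs (full-length or DNA-binding domain) were made by PURExpress in vitro transcription/translation and applied at about 100-200 nM to universal all-10-mer Agilent arrays. The arrays were made double-stranded by primer extension, on fresh or once-stripped slides. Bound protein was detected with fluorescent anti-GST, and scans were normalised with masliner. Each ungapped eight-base word, pooled with its reverse complement, received an E-score (modified Wilcoxon-Mann-Whitney statistic) from the Universal PBM Analysis Suite.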

Sequence	PBM E-score
CTAAGTGA	0.276
ATGCTATC	0.0685
AAATGCAG	0.0024
AGTTTGCA	-0.0277
GCGCCATA	-0.26
TCTTGCCA	-0.148
TCAGGGAA	-0.148
AATGGGTC	0.116
CACAGATC	-0.0384
CGTCGTAA	-0.108
CCGATCCC	-0.274
GGCACGAC	0.0192
AAGATTGG	-0.0208
AAATTCTG	-0.0269
ACCTAGTG	-0.00497
CAACTTCC	0.0718
CACAGCTC	-0.155
AGAGACTA	0.347
AAAGACAA	0.0115
ACCTGTTC	-0.112
CATGTGGG	0.0744
CACAGTGA	0.147
AACGGTTC	-0.0232
GTCAGTTA	0.0503
CCGGCAAA	-0.0685

Sequence	PBM E-score
ACACCATC	0.00758
AGCACAAT	0.0108
GTAATAAA	0.0858
GCACGTTA	-0.0515
ATCTACTG	0.0463
ACCGACGT	-0.0811
ACTTGCTC	-0.0163
CATTCACA	-0.00304
CCCAGGCG	-0.174
CTCTTCTC	-0.194
ACCATAAT	0.113
CATGTTTA	0.242
ACGGATAG	-0.19
GGAACTGA	-0.00126
CCAGAGCC	-0.19
CGCTTCTC	-0.207
GACTAATA	0.445
ATGTAAGG	-0.0358
ACGGCCGA	-0.00351
CAGCGTCG	-0.115
ACCTGTCC	-0.202
CTGGCCAC	-0.0845
GATCTATA	0.119
AGTTAGCC	0.127
CAAACCCG	-0.106

Sequence	PBM E-score
TGGTCGAA	-0.0649
AGTGAACA	-0.0788
TAGAAATA	0.0232
CGCTTTAG	0.031
GTTGTTGA	0.00507
GATTTGTA	0.0487
AGAATGCC	-0.0925
AATATGCG	-0.137
AATTTTGC	-0.127
AAGCCCTG	-0.27
GAAATGAC	0.319
GCAGGACC	-0.291
CCCATTCG	-0.0153
GCCGGAGC	-0.353
CCACTATA	-0.0974
GTTTCCGA	-0.192
CGCTGGCA	-0.0908
CAGCATCG	-0.169
AGGGATTC	-0.0892
CCATATGC	-0.092
CCCCATAA	-0.106
CCTATTAG	-0.0631
CATCCCGC	-0.0306
ACTCGCCG	0.233
GTACACCA	-0.097

Sequence	PBM E-score
CAGACTCA	0.396
AGCCGCGA	0.0437
ATACGAGG	-0.182
CGTCGCGC	0.172
GGACGATA	-0.256
AAACTAGT	0.15
GATTCCGA	0.276
AAAGATTA	0.217
CGCTCTTC	-0.207
ATGAGCGC	-0.00997
GGACAGAA	0.0356
CCTAACAG	-0.103
TCGCCTAA	0.152
GCTTATTA	-0.00641
CATGGCTA	0.328
ACGTTATG	-0.131
AGCTCATC	-0.0269
AACTCGAA	-0.0714
GACGGGCA	-0.129
CGCAGTAC	0.0149
CTTGCTGC	-0.0734
CGTTCAAC	-0.125
GATGCAAC	-0.183
TTAAGGAA	0.0206
CTAGATCA	0.0507

Sequence	PBM E-score
ACCGTGAG	0.0838
AGGAAAGG	-0.0962
ACACGAAG	0.0761
AAATGTTC	-0.0329
AACCCATG	0.0857
CTTTGAGA	0.179
ATTCCGCA	-0.0624
CGTTACGC	-0.148
CAACATTC	-0.199
TGCCACAA	-0.0447
CCCCCTTC	-0.378
CTAAAAGC	-0.0902
CCCGAACG	-0.124
CAAAATGG	-0.209
AGCGCTTC	-0.175
CACTTGGG	0.0152
ACCCGGGT	-0.195
TAACGGAA	0.167
ACGGGACC	-0.212
CTCGAGGA	0.127
AAGAGCAT	-0.131
ACATGGTG	-0.0217
AGTATCAG	-0.069
ATGGCAAG	-0.18
CTGATCCC	-0.176

Sequence	PBM E-score
CTACATAG	0.0419
CCCCTCGG	-0.247
AAGCTCAC	-0.135
AGATGGCT	0.241
GCTTGCGA	0.15
ATTCATTG	0.214
ACCACGAC	0.169
GCCAATAC	-0.222
AGCTGCCC	-0.0693
AGCGTAGA	0.0147
AATCAGGA	0.263
ATAAGTGA	0.139
ACAACGGA	-0.12
ATCACATG	0.203
GACCCGCC	-0.099
AATTGAAT	0.117
CCACCACC	-0.142
ATCCGCGG	-0.152
CGTGCACG	0.0709
CTACCACC	-0.242
GTGACCCA	0.204
ATAATAGA	0.0622
GATGTTTA	0.0744
CGACCACC	-0.22
ATACACGA	0.0335

Sequence	PBM E-score
AAGGTCCT	-0.177
AGACAGGC	-0.0638
AATCGAGT	0.244
CATACATA	0.0996
CGATACCC	-0.164
AATAACGA	0.0921
AGTGTTCG	-0.0632
TCATAACA	0.225
CCTTACGA	-0.0457
ATCTCTAA	0.0574
AGAACCCG	-0.0558
TAAAATTA	0.0539
ATTTATCC	0.0618
CACATAGA	0.0848
CACTCTCA	-0.0477
GAAATTAA	0.182
GGCGTGGA	-0.179
ACAGATCA	-0.0913
CTCCGTTC	-0.0878
GCATCAGC	-0.173
TAGCATCA	-0.0227
TCCCAAAA	0.0626
